# ± gives the standard deviation of the averaged measurements. This is one part of the list.
# Test system: PfAP2-G AP2 domain (GST-tagged)
# Assay: gcPBM binding intensity (ln(normalized median fluorescence intensity)); higher = stronger DNA binding
# Summary of the method: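 In this array assay, P. falciparum DNA-binding domains with a GST tag, expressed in E. coli, were applied for 1 h to primer-extended double-stranded 36-bp intergenic genomic probes and negative controls on an Agilent 4 × 180k array. Bound protein was visualised with Alexa488 anti-GST antibody at 488 nm. Binding intensity is the highest Masliner-normalised natural-log median intensity across replicate spots of either probe orientation.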
row,Sequence,gcPBM binding intensity (ln)
1,AACCAAACAAATAAACGTACAAACATTACATATATT [XGTACX_site2265],11.2 ± 0.57
2,AAAAAAAAAAAAAAAAAAAAAAAAATATATAATTTA [CACACA_negctrl_site583],11 ± 0.49
3,CAATCATGGGTTTACACACACATGCATGTGAAAATT [CACACA_site1349],10.06 ± 0.092
4,ACAATAAAGAAGTGTACACATATATCAATAAAAAAA [CACACA_site5228],11.6 ± 0.95
5,AAAATAATATTTAATACACACATAATTTTAATATAA [CACACA_site4588],9.98 ± 0.28
6,TACTTATATTATTTTATTATTAAATTTAAAACGAAA [CACACA_negctrl_site736],9.71 ± 0.25
7,ATATGTTATATAAATATATATATATATATATATATA [TGCATGCA_negctrl_site594],9.95 ± 0.67
8,TTAATATAATAGAAGTGTACACACATATTTATGTGT [XGTACX_site6672],11.5 ± 0.78
9,AATCACAACAGACACACACACAAAAAAAAAAAAAAA [CACACA_site1442],10.2 ± 0.71
10,GGTGGAAACAATTACACACACACAAAAAAAAAAAAA [CACACA_site3208],10.1 ± 0.47
11,TAATAATAAAAATAAACACACATATATCTGTATTTA [CACACA_site5572],9.49 ± 0.26
12,TATTTATAAACATACGCACACATTAAAATATATATA [CACACA_site6051],10.2 ± 0.23
13,ATATATATATATATAGTGCATAAAATAAGTTTCTAA,10.1 ± 0.37
14,AAAAAAAAAAAAAAATGTACATTTTGAAAGGATATA [XGTACX_site8217],10.9 ± 0.47
15,ATGCATTATTAGAATACACACCATACGCATATTTAT [CACACA_site4319],10.145 ± 0.007
16,TTTTTATAAATACACATAAATATATATATATATATA [TGCATGCA_negctrl_site393],10.1 ± 0.42
17,ACACAAAAAAATATATATATATATATATATATGTTA [CACACA_negctrl_site55],9.62 ± 0.17
18,AGAAAAAAAAAAAAATGTACAGACTTTTTCTTATAA [XGTACX_site6481],11 ± 0.55
19,AAAAAAGATAATTATGCACACACACCCACCCACCCA [CACACA_site8825],10.8 ± 0.47
20,TAAAGAAAAAGAGAATGTACATGAGAAAAGTATACT [XGTACX_site7472],11.1 ± 0.56
21,TATAAACCAATGAACACACAAACATATATATATATA [CACACA_site3168],10.2 ± 0.46
22,TCTTTTTATATTTATTGTACATAAAAAATAAAACAT [XGTACX_site4073],11.2 ± 0.82

row,Sequence,gcPBM binding intensity (ln)
1,ATATGTATATATAAAAGTACGCGTAAAAAAAAAAAA [XGTACX_site5377],11.7 ± 1.3
2,TTTTTTTTTCTTTCTTTCTTTTGTAAAAACCTCAAA [CACACA_negctrl_site723],9.97 ± 0.085
3,TATACACCCTAAAATACACACACACCCACCCATATA [CACACA_site9380],10.4 ± 0.2
4,TAAATATATAAATACACACACATACACAAAAAAAAA [CACACA_site5890],10.2 ± 0.14
5,AAGTTAGTATTCTGCTGTACTTCTATATATAAGTGT [XGTACX_site7678],11.6 ± 1.1
6,TTATATACATAAAAATGTACTTTTTATAAAATATAT [XGTACX_site8281],11.2 ± 1
7,TTTTCTTACATCTTATAAAAAAAAATATATATTATA [GTGCAC_negctrl_site118],9.725 ± 0.078
8,GTCTAACAACCAAACGCACACACACTAATAAAAAAA [CACACA_site8026],10.4 ± 0.48
9,ACAACATTTCTCAAATGTACATAATATAATTTATAT [XGTACX_site3224],10.8 ± 0.49
10,TATTAATTCTTAAATTTTTTTTTTTAATTCCTAGGA [CACACA_negctrl_site879],9.46
11,GAATGAATCAATGTTTGTACTCAACAAATTATAAGG [XGTACX_site5122],11.2 ± 0.76
12,GCCTTCCTTCTAAATGCACACGGAAAGTATAAATGT [CACACA_site8797],10.1
13,TATATATAATACAGTATGCACTATTTTTATTAAAAA,10 ± 0.18
14,CAATAATTTTTTAAATGTACTTTATTATAATTTAAT [XGTACX_site135],11.1 ± 0.62
15,TATTTTAAAACAAAAATATAATTTCATAAAAATATA [CACACA_negctrl_site394],9.61 ± 0.071
16,TAATATATATATTTATGTACATATAAATTTTCTCCT [XGTACX_site4496],11.3 ± 0.71
17,TTTTTGTAAAATAAACGTACAAAACAATTGTTCATT [XGTACX_site6537],11.3 ± 0.81
18,TATCTGTATGTATGTACACACAAAAAATGGAATATA [CACACA_site5947],11.4 ± 0.82
19,ATAAAATAATCTTATGCACACCAAAAATTTATATAA [CACACA_site8332],10.2 ± 0.12
20,ATATATCAAAAATGATGACATAAATATATTAATTTA [TGCATGCA_negctrl_site259],9.71 ± 0.12
21,AACAGATAAAAGGGTACACACATATATACATGTACA [CACACA_site225],11.6 ± 0.88
22,ATATAATAAGGTTAAGCACACATATTACATATATAA [CACACA_site9110],10 ± 0.18

row,Sequence,gcPBM binding intensity (ln)
1,TTGTATATATTTCCTTGTACGTAATAATTCTTATTG [XGTACX_site3938],11.3 ± 0.71
2,TTTCACACTATTTCATGTACACATAAAATTATATAT [XGTACX_site8692],11.4 ± 0.94
3,TAAATATAATAAAAGTGTACTTACACTTACATATAA [XGTACX_site1206],11.2 ± 0.88
4,TTTTATTCCGTTTCAAAATAAGAAAAAAAAAAAAAT [CACACA_negctrl_site1199],9.93 ± 0.36
5,CTTATATATACGTGCACACATATATATAAGATATAT [CACACA_site1752],10.5 ± 0.46
6,AAAAATATAAATGACACACACTTAAAAACAAAGAAA [CACACA_site4540],10.1 ± 0.11
7,ATTTAAAAAAAAAAAAATAAATAACTTGAAAAACAA [GTGCAC_negctrl_site318],9.47 ± 0.057
8,AAGGATAATAGGTACACATGCAATATTCATATATAC [TGCATGCA_site523],11.4 ± 0.93
9,TCAAAAGAAATAAAAACATGCATAAAAGTAAAAATA [TGCATGCA_site832],9.86 ± 0.16
10,AAATACTGTACAAAGGTGCATAAAAAGTGGGGCATA,10.9 ± 0.57
11,ACGTATATTTTTACATGTACATATGTAAAAAATTTT [XGTACX_site4587],11.3 ± 0.77
12,TGTTTTTCATAGTGCACACATAACCAAAAATAGTAT [CACACA_site3150],10.7 ± 0.52
13,TTATGATAATTTTGCACACACTTAGGAAAAATTATG [CACACA_site4949],10.3 ± 0.33
14,AAATAATATATATACACACACACATATATATATACA [CACACA_site554],10.03 ± 0.028
15,GAATGTTTATTATATGCATGTTATATATATGAATAT [TGCATGCA_site4],9.685 ± 0.049
16,CCTTTCCTTTTATAAGTGCATATAACAAATGTATAC [GTGCAC_site9872],10.3 ± 0.24
17,TTTTATTTATCATACACACACAGAAAAAAAAAAAAA [CACACA_site158],9.94 ± 0.52
18,AATAATGAAAAATCAAATAACCTAAATTACAACTGT [XGTACX_negctrl_site65],9.875 ± 0.078
19,AAAAATAAAAAAATAAAAAATAAAAAAATAAAAAAT [CACACA_negctrl_site1425],9.415 ± 0.021
20,TATATACACACCGTGTGTACATATACATTAACTGAA [XGTACX_site7120],11.2 ± 0.76
21,GTTATATATGATGGAAGCACTTGGAAGAGGGAAATA [CACACA_negctrl_site1831],9.94 ± 0.15
22,GATAAATATTTAATATGTACATATATTATATATATA [XGTACX_site117],11.2 ± 0.65

row,Sequence,gcPBM binding intensity (ln)
1,ATATATTATATATGCGCACACACGAATTTTTTTTTT [CACACA_site2393],10.3 ± 0.12
2,ATTAAAGTTATAAATTCACACATGTAAATGTATTTA [CACACA_site5279],9.85 ± 0.11
3,TCGAAAATGACGAATGGTACAGTATGTATAAAAATA [XGTACX_site1258],10.9 ± 0.53
4,ACTTTTTTTTTGTGTGTGCACTCGATTATATACATA [GTGCAC_site9846],10.7 ± 0.44
5,TACACTAATGACAGTTGTACTTTTATTCGATAGAAT [XGTACX_site738],11.4 ± 0.85
6,TATATATATATAATATGTACATATATACATGCCTTG [XGTACX_site2791],11.1 ± 0.69
7,TATCTGTAAACATATTCACACACATAAATTCGCATA [CACACA_site8557],10.03 ± 0.064
8,TATATATACATACGTACACACAAATATTAAAATATA [CACACA_site1951],11.5 ± 1.1
9,TCAAAATTGCTTTGTTGTACTAATAAAATTTATTAC [XGTACX_site1121],11.2 ± 0.64
10,ATGGCATAAATATATGCACACACAAAAAAAAAAAAA [CACACA_site7902],9.95 ± 0.35
11,AATATTATAAAATATTGTACTTAAAAAATTATTAAA [XGTACX_site2469],11.3 ± 0.82
12,TAAATTTTTTCTTTTTGTACATATTTTAAAAATGTT [XGTACX_site7526],11.1 ± 0.49
13,TTTCTTTTTTTTTGAAGTACATAAAAATATAAAAAA [XGTACX_site311],11.6 ± 1.1
14,ATATATATATGTATGTATATATATATATATATGTTT [CACACA_negctrl_site248],9.96 ± 0.6
15,AAAAAGAAAAAGAGCACACAAAAATATTTAACCTTT [CACACA_site2747],10.03 ± 0.014
16,AAAACACAAAAAAAATGTACACATATATATATATAT [XGTACX_site8509],11.3 ± 0.89
17,ATATTAATTCTACATTGTACACATGAAAAAATATAA [XGTACX_site8759],11.4 ± 0.96
18,TAACTATATTTTTACTGTACAAAAAAATTAAATAAT [XGTACX_site1765],11.1 ± 0.71
19,GTTATATATAATAATTGTACAAAATTAAATATAACT [XGTACX_site4189],10.8 ± 0.49
20,TTTTTATTTGGTTGTGTACACATATATATATATATA [CACACA_site5844],11.6 ± 0.94
21,AAAAAACACCCACATACACACAAAAATGTTATAAAT [CACACA_site81],10.2 ± 0.3
22,CATTATGTCGTAAATACACACATACAGATACATACA [CACACA_site4880],10.3 ± 0.22
